The full ranking holds about 33,000 sequences; the median of “E-score (-0.5 to 0.5)” is about -0.016, and the highest 2% start at about 0.31. The list shows a part of the results.
molecular target: Cst6 (UniProt P40535); assay: PBM E-score (8-mer binding enrichment) (E-score (-0.5 to 0.5)); higher = stronger / more preferred TF binding; most listed sequences are background and not binding sites; details: protein concentration: 200 nM; construct: GST-DNA-binding domain
How it was run: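 Yeast transcription factors carrying a GST tag, as full-length proteins or DNA-binding domains, were produced by PURExpress in vitro transcription/translation. About 100-200 nM protein was applied to universal all-10-mer Agilent arrays, double-stranded by primer extension on fresh or once-stripped slides. Bound protein was detected with fluorescent anti-GST, and scans were normalised with masliner. The Universal PBM Analysis Suite gave each ungapped eight-base word, pooled with its reverse complement, an E-score, a modified Wilcoxon-Mann-Whitney statistic.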

| Sequence | PBM E-score |
| --- | --- |
| ACATTGTA | 0.0674 |
| AATGCTTG | -0.156 |
| TTGCTAAA | 0.0398 |
| GTCCGCCA | -0.193 |
| GCAGATGC | -0.122 |
| GTAGCTAA | -0.0668 |
| CAGGCAGA | -0.0347 |
| CTAGCGGC | -0.249 |
| GCCGCGTA | 0.191 |
| AGTAGGCC | -0.195 |
| AACTGGTC | -0.14 |
| AGAGGGTG | -0.204 |
| CATGCTCA | 0.0311 |
| AGCCTTCG | -0.254 |
| CATGCCTC | 0.225 |
| CTAAGTGC | -0.0297 |
| CCATAGGG | -0.192 |
| GTCTGCGA | -0.0431 |
| AGATGATC | 0.0705 |
| AGTCGTCG | -0.197 |
| TGCAAGCA | -0.0921 |
| CGTCATTC | 0.467 |
| ACCAGCTA | -0.0308 |
| ATTATCCC | 0.106 |
| ATGCGCAA | 0.0379 |

| Sequence | PBM E-score |
| --- | --- |
| CGTGAAAG | 0.143 |
| ACTGCCCA | -0.241 |
| CTGCAGGC | -0.202 |
| GCTAAACA | 0.0779 |
| CTATGCCA | -0.114 |
| GGTTATAA | 0.152 |
| CAACCACG | 0.0314 |
| AACCAAGG | 0.00035 |
| GCCTCAAA | -0.00267 |
| AAAGGCGT | 0.0889 |
| CGAGGATA | -0.0893 |
| ATCGTGGA | -0.0118 |
| GAAGCGAC | -0.145 |
| AAGCCTAT | 0.088 |
| GACGTCTC | 0.195 |
| GAGTGAAA | 0.00981 |
| TCCAACCA | -0.0556 |
| ATCTAGGG | -0.0697 |
| ATCGTGCC | 0.0448 |
| CAGATCTC | -0.0666 |
| AGGCTCCC | -0.306 |
| ACCAAAAA | 0.257 |
| AGCACACC | -0.204 |
| AACCAAAC | -0.102 |
| ATTTAGGC | 0.0895 |

| Sequence | PBM E-score |
| --- | --- |
| ATCCTAGG | -0.302 |
| CCTACAGA | -0.179 |
| ACCCCGGT | -0.348 |
| CTGGAGCC | -0.164 |
| AATGGGGT | 0.0446 |
| CGTAGTTC | -0.059 |
| GGTTAAAC | -0.0296 |
| ATTTGGGC | -0.102 |
| GCCGAGGC | 0.118 |
| CGAGCACG | -0.21 |
| AGCGAGAT | 0.0245 |
| CTTAAGGC | -0.0441 |
| ATCGCTTC | -0.00604 |
| GCAAACCA | 0.0183 |
| ATCCATGA | -0.0487 |
| CAGGACCA | -0.193 |
| CCGTGGCC | -0.29 |
| CTGAAAAG | 0.0398 |
| GAACGTTC | -0.193 |
| GAGCGTAC | -0.197 |
| ATTGCCAC | -0.00183 |
| AGCGATTA | -0.00916 |
| AGCCGAAG | -0.0711 |
| CTGAGCAA | -0.0142 |
| CCTTGCAC | -0.0974 |

| Sequence | PBM E-score |
| --- | --- |
| GCCTTCTA | -0.141 |
| AGCCTCAA | -0.117 |
| ACCTTATC | 0.104 |
| CCGGTGGC | -0.24 |
| AAGACGGT | -0.112 |
| GTTGTGCA | -0.317 |
| CCCACCCG | -0.0131 |
| AACTTCGT | 0.0193 |
| GTTTTTGA | 0.153 |
| ATGTACTC | -0.0162 |
| ACCCAATG | 0.00684 |
| ACGGCATC | 0.375 |
| CACTGACA | 0.08 |
| CATCAATG | 0.278 |
| CTGTTCAC | -0.141 |
| CTCCGGTA | -0.0404 |
| AAAGTCTG | -0.0989 |
| TCAGCTCA | 0.0126 |
| ATTACCCG | 0.0968 |
| ATGCTTCC | 0.021 |
| ACACGGCA | 0.282 |
| CTCCGCTC | -0.0277 |
| ACAGGCAG | -0.0376 |
| ACACCTGA | 0.213 |
| GTTAGCGA | 0.128 |

| Sequence | PBM E-score |
| --- | --- |
| AAGGAATC | -0.128 |
| AAAGCTTG | -0.0299 |
| GGGTTCTA | -0.213 |
| AAAAGCCC | -0.137 |
| AGTGAGGA | -0.144 |
| CTTCTATA | 0.0494 |
| CATACGAG | -0.0981 |
| AATACCCT | -0.138 |
| GCGCAGGA | -0.205 |
| CCTTACCC | -0.0626 |
| GCTTCCAA | -0.0131 |
| ACGGATCA | 0.135 |
| CCGGTATA | -0.15 |
| AAATTCTA | 0.123 |
| GCTTTGCC | -0.177 |
| AGCGGCGA | 0.0437 |
| AGTCAATA | 0.0835 |
| TTAACTAA | 0.277 |
| AACCTGGG | -0.304 |
| GCAAAGTA | 0.102 |
| TCCCCACA | -0.103 |
| AAGGTTGT | 0.022 |
| CCCGCACA | -0.0728 |
| AGTCCCTA | -0.248 |
| GGGTCAAA | -0.0725 |

| Sequence | PBM E-score |
| --- | --- |
| ATGCGCAG | -0.156 |
| ATAGGATA | 0.0454 |
| GTTTCCAA | -0.138 |
| CTAACAAC | 0.109 |
| ACGTATAG | 0.189 |
| AACTTACC | -0.0221 |
| GACTAAAA | 0.136 |
| CACGGAGA | -0.116 |
| AACATGTT | -0.102 |
| CGGGCACA | -0.315 |
| CTCCAGGA | -0.184 |
| GCCGATAA | 0.0648 |
| CGACCGCC | -0.176 |
| TAAAATCA | 0.191 |
| ACCTCAAT | 0.163 |
| TAATTGGA | 0.0942 |
| AAGTTTCG | -0.0165 |
| AAGTGATA | 0.0557 |
| AGTACTTG | 0.0955 |
| CGAATATA | 0.0991 |
| CGATCAGA | 0.101 |
| CAAGCCTC | -0.211 |
| TTCAGAAA | 0.0738 |
| AACAGGCC | -0.264 |
| ATGTAATG | 0.394 |

| Sequence | PBM E-score |
| --- | --- |
| CCAAACCC | -0.126 |
| CGGGGCGC | -0.119 |
| ACGGCGGG | 0.108 |
| GGAGCAAA | -0.114 |
| CGGATAAA | 0.228 |
| CCCGACTA | -0.252 |
| TATTGGAA | 0.122 |
| ACTTTACA | 0.13 |
| CAGCGCAC | -0.335 |
| ATTGCCGG | -0.237 |
| AGGCTCGG | -0.303 |
| CGCTCTAC | -0.0707 |
| AGAAACCG | -0.185 |
| GTCTGATA | -0.0451 |
| GCAGGGGC | -0.135 |
| ATGCGGCA | 0.312 |
| GATCGCTA | -0.0484 |
| GCACTGGA | -0.138 |
| AAAGTAGA | 0.0816 |
| CTCGACGA | -0.0908 |
| CCTGCTCG | -0.295 |
| GCCAATCC | -0.0757 |
